{
  "source": "PubChem BioAssay AID875",
  "about": "(National Center for Advancing Translational Sciences (NCATS), 2007)",
  "note": "In all, about 75,000 compounds went through this assay and about 35 (0.05%) were called active. Inconclusive means that the source gave no clear call. Such entries were picked first, then a sample of the others. Calls follow the shape of the dose curve; as a rule, active = well fitted inhibition curve with a large enough effect; inconclusive = small, poorly fitted or top-dose-only effect; inactive = no such curve, though single readings can be large or run the other way. A potency beside an inconclusive call is a rough fit, not a confirmed value. Potency is read from the fitted curve at half-maximal effect; tags tell the direction and shape of the fitted curve.",
  "data": [
    {"target": "Breast cancer type 1 susceptibility protein (Homo sapiens) (UniProt P38398)", "sequence (P38398 whole entry, looked up)": "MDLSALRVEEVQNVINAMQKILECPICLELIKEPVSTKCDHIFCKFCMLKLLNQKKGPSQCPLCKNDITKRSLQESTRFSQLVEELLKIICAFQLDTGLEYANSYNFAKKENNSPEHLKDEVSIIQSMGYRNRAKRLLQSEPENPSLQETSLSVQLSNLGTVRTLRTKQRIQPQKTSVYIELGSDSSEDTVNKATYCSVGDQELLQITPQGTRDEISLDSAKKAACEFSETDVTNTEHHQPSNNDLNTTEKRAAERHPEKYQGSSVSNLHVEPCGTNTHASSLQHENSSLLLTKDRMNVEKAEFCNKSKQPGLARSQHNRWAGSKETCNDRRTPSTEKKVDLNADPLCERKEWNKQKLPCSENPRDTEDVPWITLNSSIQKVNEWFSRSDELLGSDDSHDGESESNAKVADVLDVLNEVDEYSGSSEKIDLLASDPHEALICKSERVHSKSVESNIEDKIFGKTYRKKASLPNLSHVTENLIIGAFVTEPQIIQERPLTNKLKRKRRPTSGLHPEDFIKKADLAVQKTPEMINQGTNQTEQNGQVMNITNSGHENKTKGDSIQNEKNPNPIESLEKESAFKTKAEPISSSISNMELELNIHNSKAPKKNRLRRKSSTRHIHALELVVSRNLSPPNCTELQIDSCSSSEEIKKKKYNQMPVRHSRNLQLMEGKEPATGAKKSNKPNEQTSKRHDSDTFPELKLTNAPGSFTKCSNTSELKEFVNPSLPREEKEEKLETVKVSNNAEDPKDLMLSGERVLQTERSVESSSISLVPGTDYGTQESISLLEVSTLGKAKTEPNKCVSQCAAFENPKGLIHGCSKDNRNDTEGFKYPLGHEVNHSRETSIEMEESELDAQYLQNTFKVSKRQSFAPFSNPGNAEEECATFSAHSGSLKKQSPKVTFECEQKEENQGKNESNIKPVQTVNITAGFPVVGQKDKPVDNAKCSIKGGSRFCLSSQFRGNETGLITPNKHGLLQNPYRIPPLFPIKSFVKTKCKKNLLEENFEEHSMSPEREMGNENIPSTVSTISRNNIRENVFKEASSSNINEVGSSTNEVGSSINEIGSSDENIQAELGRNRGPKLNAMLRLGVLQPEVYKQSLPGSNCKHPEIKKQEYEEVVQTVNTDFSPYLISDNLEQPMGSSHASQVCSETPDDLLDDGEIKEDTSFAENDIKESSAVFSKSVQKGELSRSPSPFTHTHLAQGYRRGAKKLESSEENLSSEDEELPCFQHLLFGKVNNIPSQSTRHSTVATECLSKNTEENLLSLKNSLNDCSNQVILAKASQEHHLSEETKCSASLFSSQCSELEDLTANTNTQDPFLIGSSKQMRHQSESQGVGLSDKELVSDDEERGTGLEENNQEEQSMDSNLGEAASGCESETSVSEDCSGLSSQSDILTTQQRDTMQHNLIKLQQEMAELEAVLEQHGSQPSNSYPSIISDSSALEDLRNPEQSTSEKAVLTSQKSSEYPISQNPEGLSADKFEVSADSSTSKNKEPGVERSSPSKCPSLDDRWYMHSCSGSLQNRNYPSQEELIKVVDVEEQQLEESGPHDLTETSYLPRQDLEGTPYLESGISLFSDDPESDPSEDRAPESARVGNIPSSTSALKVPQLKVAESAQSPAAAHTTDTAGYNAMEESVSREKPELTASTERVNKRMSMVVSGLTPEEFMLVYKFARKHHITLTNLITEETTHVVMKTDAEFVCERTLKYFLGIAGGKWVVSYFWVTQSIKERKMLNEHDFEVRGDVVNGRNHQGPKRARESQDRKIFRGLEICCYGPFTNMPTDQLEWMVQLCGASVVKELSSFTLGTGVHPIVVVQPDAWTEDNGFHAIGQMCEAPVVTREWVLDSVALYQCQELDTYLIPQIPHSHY", "assay": "qHTS Assay for Inhibitors of BRCT-Phosphoprotein Interaction (Green Fluorophore);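 as to activity change, negative = inhibition: plate controls were peptide without protein for full effect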", "settings": "BRCA1 BRCT-phosphopeptide binding, green fluorescence polarization; series mostly up to 76.9 µM; activity change, negative = inhibition: at the top concentration", "description": "NIH Molecular Libraries Screening Centers Network [MLSCN]\nNIH Chemical Genomics Center [NCGC]\nPI Name: Natarajan, Amarnath; University of Texas\nA complex of BRCT (C-terminal portion of BRCA1, MW ~35 kDa, His-tagged) and fluorescently labeled pBACH1 phosphorylated 10 aa peptide fragment of BACH1, a helicase implicated in DNA repair, is incubated with library members. Inhibitors of BRCT-pBACH1 binding are detected by a decrease in the fluorescence polarization (FP) of the fluorophore. In order to minimize the effect of fluorescence artifacts and to increase the overall robustness of the screen, the compound library members were incubated in separate reactions with fluorescein labeled probe-protein complexes. Protein and labeled probes were supplied by Dr. Amarnath Natarajan, Department of Pharmacology and Toxicology, University of Texas Medical Branch Galveston, TX.\nAssay Buffer: 16mM Na2HPO4, 4 mM NaH2PO4, 150 mM NaCl, 1 mM EDTA, 1 mM DTT, 0.02% NaN3, and 0.01% Tween 20 at pH 7.3.\n100 nM labeled decapeptide/250 nM protein in columns 1, 2, 5 - 48. Titration of unlabeled decapeptide control (from 10 mM, then 1:2 dilution in duplicate) pin-transferred to column 2, rows 1 to 16. Column 1 is neutral.\nThree uL of reagents were dispensed to 1536-well Greiner black solid-bottom plates. Compounds and controls (23 nL) were transferred\nvia Kalypsys PinTool. The plates were incubated for 12 min at room temperature, and then read on ViewLux (Perkin-Elmer) High throughput CCD imager using FITC for the fluorescein-labeled decapeptide probe polarization filter sets. During dispense, reagent bottles were kept submerged into 4 deg C water bath and all liquid lines were covered with aluminum foil to minimize probe and protein degradation. All screening operations were performed on a Kalypsys robotic system (Kalypsys, Inc., San Diego, CA) containing one RX-130 and two RX-90 anthropomorphic robotic arms. The timing and order of assay plates passing through the screening system were adjusted such that each compound library plate was assayed against the fluorescein- and rhodamine-labeled assay systems at immediately adjacent time points.", "values": [
      {"smiles": "Cc1cc(C(=O)COc2cccc3cccnc23)c(C)n1C", "Potency": "inconclusive: 25.1 µM [inhibitor, partial curve]"},
      {"smiles": "O=C(O)c1c(Br)c(Br)c(Br)c(Br)c1C1c2ccc(O)cc2Oc2cc(O)ccc21", "Potency": "inconclusive: 1 µM [inhibitor, partial curve]"},
      {"smiles": "COc1ccccc1C1C=C(c2ccc(Cl)cc2)Nc2nc(NS(C)(=O)=O)nn21", "note": "(stereo not drawn)", "Potency": "inconclusive: 31.6 µM [inhibitor, single point]"},
      {"smiles": "COC(=O)[C@@]1(Cc2ccccc2)[C@H]2c3cc(C(=O)N(C)C)n(Cc4nc5ccccc5[nH]4)c3C[C@H]2CN1C(=O)c1ccccc1", "activity change, negative = inhibition": "inactive: 15%"},
      {"smiles": "O=C1CCN2C=Nc3cccc4ccc1c2c34", "Potency": "active: 15.8 µM"},
      {"smiles": "Cc1nn(-c2ccc(S(=O)(=O)O)cc2)c(O)c1N=Nc1ccc(-c2ccc(N=Nc3ccc4c(S(=O)(=O)O)cc(S(=O)(=O)O)c(N)c4c3O)c(O)c2)cc1O.[Cu].[Cu]", "Potency": "active: 6.31 µM"},
      {"smiles": "Nc1c(S(=O)(=O)O)cc(Nc2ccc(Nc3nc(Cl)nc(Nc4ccc(S(=O)(=O)O)cc4)n3)c(S(=O)(=O)O)c2)c2c1C(=O)c1ccccc1C2=O", "Potency": "inconclusive: 50.1 µM [inhibitor, single point]"},
      {"smiles": "c1ccc(-c2csc(-c3nc4ccccc4[nH]3)n2)cc1", "Potency": "inconclusive: 39.8 µM [inhibitor, partial curve]"},
      {"smiles": "O=c1oc2c(CN3CCCCCC3)c(O)ccc2cc1-c1nc2ccccc2[nH]1", "Potency": "active: 31.6 µM"},
      {"smiles": "COc1ccc(CNC(=O)C(C#N)c2nc3ccccc3nc2N2CCN(C)CC2)cc1", "note": "(stereo not drawn)", "activity change, negative = inhibition": "inactive: -3.5%"},
      {"smiles": "C1=C(c2ccc(-c3ccccc3)cc2)Nc2ncnn2C1c1ccco1", "note": "(stereo not drawn)", "Potency": "inconclusive: 50.1 µM [inhibitor, single point]"},
      {"smiles": "O=C(O)c1ccccc1C1=Nc2ccc(O)cc2Oc2cc(O)ccc21", "Potency": "inconclusive: 31.6 µM [inhibitor, partial curve]"},
      {"smiles": "Cc1cc(C)c(/C=C2/C(=O)Nc3ccccc32)[nH]1", "Potency": "inconclusive: 50.1 µM [inhibitor, single point]"},
      {"smiles": "CC(C)OC(=O)CC(=O)c1sc2nc3c(cc2c1N)CN(C)CC3", "Potency": "inconclusive: 25.1 µM [inhibitor, partial curve]"},
      {"smiles": "N#CC1=C(N)C(C#N)(C#N)C(c2cccnc2)C2CCCC=C12", "note": "(stereo not drawn)", "Potency": "inconclusive: 31.6 µM [inhibitor, single point]"},
      {"smiles": "COc1cccc(Cn2c(=O)c(-c3ccccc3)nc3cncnc32)c1", "activity change, negative = inhibition": "inactive: 0.196%"},
      {"smiles": "O=C1C=CC(=O)c2c(O)c(Cl)c(Cl)c(O)c21", "Potency": "inconclusive: 31.6 µM [inhibitor, partial curve]"},
      {"smiles": "OCCN(CCO)c1nc(N2CCCCC2)c2nc(N(CCO)CCO)nc(N3CCCCC3)c2n1", "Potency": "active: 39.8 µM"},
      {"smiles": "C[C@@H]1CNCCN1S(=O)(=O)c1cccc2cnccc12", "Potency": "inactive"},
      {"smiles": "NC(=O)SCC(=O)Nc1ccc(Cl)cc1", "activity change, negative = inhibition": "inactive: -1.74%"},
      {"smiles": "Cc1cccc(N2CSC3=C(C#N)C(c4ccc(C)o4)CC(=O)N3C2)c1", "note": "(stereo not drawn)", "Potency": "inconclusive: 50.1 µM [inhibitor, single point]"},
      {"smiles": "Cc1occc1-c1nnc(SCC(=O)c2cc3ccccc3oc2=O)o1", "Potency": "inconclusive: 50.1 µM [inhibitor, single point]"},
      {"smiles": "COc1ccc(C2C=C(c3ccc(Br)s3)Nc3ncnn32)cc1OC", "note": "(stereo not drawn)", "Potency": "inconclusive: 50.1 µM [inhibitor, single point]"},
      {"smiles": "N#CCCn1c(=O)c(-c2cccs2)nc2cnc(N3CCNCC3)nc21", "Potency": "inconclusive: 31.6 µM [inhibitor, partial curve]"},
      {"smiles": "O=C(Cc1coc2cc3c(cc12)CCC3)OCc1cc(=O)n2c(n1)sc1ccccc12", "activity change, negative = inhibition": "inactive: 0.271%"},
      {"smiles": "CN1CC=C2C(C#N)=C(N)C(C#N)(C#N)C(Cc3ccccc3)C2C1", "note": "(stereo not drawn)", "Potency": "inconclusive: 31.6 µM [inhibitor, single point]"},
      {"smiles": "C/C(O)=C\\c1nc(=O)c2c(C)cc(C)nc2n1-c1ccccc1", "activity change, negative = inhibition": "inactive: -4.52%"},
      {"smiles": "O=C(O)CCc1c2ccc(=O)c(O)c-2oc2c(O)c(O)ccc12", "Potency": "inconclusive: 6.31 µM [inhibitor, single point]"},
      {"smiles": "C=Cc1c(C)c2cc3[nH]c(cc4nc(cc5nc(cc1[nH]2)C(C)=C5CCC(=O)O)C(CCC(=O)O)=C4C)c(C)c3C=C", "Potency": "inactive"},
      {"smiles": "CCOC(=O)Cn1c(CN2CCN(c3cccc(Cl)c3)CC2)nc2c1c(=O)[nH]c(=O)n2C", "Potency": "inconclusive: 39.8 µM [inhibitor, single point]"},
      {"smiles": "O=C(Nc1cccc(F)c1)c1cccc(S(=O)(=O)N2CCOCC2)c1", "activity change, negative = inhibition": "inactive: -0.32%"},
      {"smiles": "O=c1oc2c(CN3CCCCC3)c(O)ccc2cc1-c1nc2ccccc2[nH]1", "Potency": "inconclusive: 3.98 µM [inhibitor, full curve]"},
      {"smiles": "COc1ccc(N(C(=O)c2ccco2)C(C(=O)NC2CCCC2)c2ccc(N(C)C)cc2)cc1OC", "note": "(stereo not drawn)", "activity change, negative = inhibition": "inactive: -0.39%"},
      {"smiles": "CCOC(=O)CNC(=O)c1cc(-c2ccc3c(c2)OCCO3)oc1C", "Potency": "inconclusive: 39.8 µM [inhibitor, partial curve]"},
      {"smiles": "N#Cc1c(-c2ccco2)cc(-c2cccnc2)nc1N", "Potency": "inconclusive: 39.8 µM [inhibitor, single point]"},
      {"smiles": "Cn1nc(-c2ccccc2)c2nc3ccccc3nc21", "Potency": "inconclusive: 10 µM [inhibitor, full curve]"},
      {"smiles": "Oc1ccccc1C1Nc2cccc3cccc(c23)N1", "activity change, negative = inhibition": "inactive: -3.4%"},
      {"smiles": "COc1[nH]c(/N=C/c2ccccc2)c(C#N)c1C#N", "Potency": "active: 25.1 µM"}
    ]}
  ]
}
